These results are taken from the BET-seq Pho4 binding data (Le et al. 2018).

This is one part of the list. Values were computed here from the reads of four pooled replicates and scatter widely.

The target in this assay is T1, Pho4 (S. cerevisiae) (UniProt P07270).
T1 sequence: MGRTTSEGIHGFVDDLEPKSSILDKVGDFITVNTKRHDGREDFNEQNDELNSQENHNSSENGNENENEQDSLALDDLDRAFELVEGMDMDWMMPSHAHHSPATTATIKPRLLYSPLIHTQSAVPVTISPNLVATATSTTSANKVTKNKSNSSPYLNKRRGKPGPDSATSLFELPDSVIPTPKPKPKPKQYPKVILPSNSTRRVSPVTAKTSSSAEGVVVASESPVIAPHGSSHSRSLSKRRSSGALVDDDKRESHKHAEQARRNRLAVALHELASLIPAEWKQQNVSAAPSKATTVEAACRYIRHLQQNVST
As to the kind of experiment: relative binding free energy (BET-seq); higher = weaker binding. The following applies: reference: library average.
Regarding ATGGTCACGTGATGGC, the “relative binding free energy” value is 0.13 kcal/mol.

CGGCTCACGTGAGGTT: the “relative binding free energy” value came to 0.43 kcal/mol.

For CGGGTCACGTGGTGTC, the “relative binding free energy” value worked out at 0.05 kcal/mol.

In the case of TAAATCACGTGGGTGA, the “relative binding free energy” value amounted to 0.06 kcal/mol.

As to CATGTCACGTGTATTT, the “relative binding free energy” value stood at 0.06 kcal/mol.

In the case of CTGTACACGTGTTATG, the “relative binding free energy” value was determined as 0.05 kcal/mol.

Take TGTAGCACGTGTGGAT: the “relative binding free energy” value is -0.05 kcal/mol.

For the sequence CTGGGCACGTGTTAAG, the “relative binding free energy” value was -0.15 kcal/mol.

Regarding ATAGCCACGTGTTTGA, the “relative binding free energy” value amounted to 0.01 kcal/mol.

GTTGTCACGTGGGGCA: the “relative binding free energy” value is -0.01 kcal/mol.

For the sequence TGGGACACGTGGTGCA, the “relative binding free energy” value is -0.08 kcal/mol.

Regarding GGTCGCACGTGGTGAA, the “relative binding free energy” value was -0.15 kcal/mol.

Take GCAGGCACGTGGTAAG: the “relative binding free energy” value was -0.06 kcal/mol.

Regarding CGGGGCACGTGAAGGA, the “relative binding free energy” value stood at 0.12 kcal/mol.

Regarding GATGACACGTGGCGAT, the “relative binding free energy” value was 0.09 kcal/mol.

On to GGATGCACGTGGCGGG, for which the “relative binding free energy” value was -0.06 kcal/mol.

On to TATGTCACGTGAGACA, for which the “relative binding free energy” value is 0.39 kcal/mol.

As to TAACTCACGTGTTCGT, the “relative binding free energy” value was found to be 0.39 kcal/mol.

TGATTCACGTGTACGA: the “relative binding free energy” value is 0.38 kcal/mol.

For TGGTTCACGTGGAAAG, the “relative binding free energy” value is 0.43 kcal/mol.

As to GGGTGCACGTGAATTG, the “relative binding free energy” value was determined as 0.3 kcal/mol.

With TGGGGCACGTGGATAT, the “relative binding free energy” value is -0.09 kcal/mol.

As to TTTTACACGTGCGGAG, the “relative binding free energy” value amounted to 0.15 kcal/mol.

In the case of GTAGTCACGTGAAGGT, the “relative binding free energy” value is 0.36 kcal/mol.

As for TTGGACACGTGGGAGC, the “relative binding free energy” value was -0.11 kcal/mol.

On to ATTTGCACGTGTATAA, for which the “relative binding free energy” value is -0.1 kcal/mol.

In the case of TGTATCACGTGGCTGG, the “relative binding free energy” value came out at 0.15 kcal/mol.

Take GGGGTCACGTGGGCAT: the “relative binding free energy” value was determined as 0.04 kcal/mol.

As for GTGCTCACGTGGAGTG, the “relative binding free energy” value stood at 0.2 kcal/mol.

In the case of TGGGTCACGTGTCCGG, the “relative binding free energy” value turned out to be 0.14 kcal/mol.

For the sequence GGCTCCACGTGTTGTG, the “relative binding free energy” value was found to be 0.1 kcal/mol.

As to GGTTGCACGTGTGTTC, the “relative binding free energy” value came to 0.13 kcal/mol.

As for CGTTTCACGTGCATTG, the “relative binding free energy” value was found to be 0.2 kcal/mol.

Turning to TGATACACGTGTTGAG, the “relative binding free energy” value stood at 0.05 kcal/mol.

In the case of GTGTTCACGTGCGCTT, the “relative binding free energy” value came to 0.15 kcal/mol.

Take GTACTCACGTGTTAGT: the “relative binding free energy” value amounted to 0.29 kcal/mol.

Consider GCCAGCACGTGTGGTG, for which the “relative binding free energy” value amounted to 0.14 kcal/mol.

Turning to TCAATCACGTGAGGGT, the “relative binding free energy” value was determined as 0.3 kcal/mol.

In the case of TTATGCACGTGAGGGA, the “relative binding free energy” value was 0.14 kcal/mol.

GGCGGCACGTGTACGT: the “relative binding free energy” value stood at 0.02 kcal/mol.

Turning to TATCTCACGTGTTATG, the “relative binding free energy” value was determined as 0.21 kcal/mol.

For the sequence AAGATCACGTGACTGG, the “relative binding free energy” value is 0.44 kcal/mol.

As to GGAATCACGTGATGGA, the “relative binding free energy” value was found to be 0.38 kcal/mol.

In the case of AGGTGCACGTGGCTTG, the “relative binding free energy” value was -0.17 kcal/mol.

As for TTGGGCACGTGGTGTC, the “relative binding free energy” value is -0.07 kcal/mol.

As for CTGTGCACGTGAAGGT, the “relative binding free energy” value worked out at 0.2 kcal/mol.

As to ATGTTCACGTGTGCGT, the “relative binding free energy” value was found to be 0.35 kcal/mol.

As to TATGACACGTGGGGTG, the “relative binding free energy” value is -0.24 kcal/mol.

For the sequence ATGTTCACGTGGTTGA, the “relative binding free energy” value came out at 0.32 kcal/mol.

In the case of GGAATCACGTGAGTTG, the “relative binding free energy” value worked out at 0.17 kcal/mol.

Consider TAGGACACGTGGGCCG, for which the “relative binding free energy” value is -0.02 kcal/mol.

With GTTTACACGTGGTAAA, the “relative binding free energy” value was 0.06 kcal/mol.

Turning to TCTAACACGTGTGAGT, the “relative binding free energy” value was 0.14 kcal/mol.

In the case of GAAGTCACGTGATGGG, the “relative binding free energy” value was 0.39 kcal/mol.

Regarding GGACTCACGTGTGGAG, the “relative binding free energy” value was found to be 0.31 kcal/mol.

On to ATGTGCACGTGCGGAA, for which the “relative binding free energy” value is -0.06 kcal/mol.

As to GGTATCACGTGGTCTG, the “relative binding free energy” value worked out at 0.11 kcal/mol.

Regarding GTAGTCACGTGTAGCG, the “relative binding free energy” value amounted to 0.01 kcal/mol.

As for GCGGGCACGTGGGGTG, the “relative binding free energy” value was -0.24 kcal/mol.

On to GGGTTCACGTGACGGT, for which the “relative binding free energy” value worked out at 0.46 kcal/mol.

With TGTGGCACGTGTTTAC, the “relative binding free energy” value was -0.12 kcal/mol.

Take TGTTACACGTGATTAT: the “relative binding free energy” value turned out to be 0.2 kcal/mol.

For the sequence TGGGTCACGTGTATCG, the “relative binding free energy” value is 0.09 kcal/mol.

GTGTTCACGTGGATGA: the “relative binding free energy” value came out at 0.27 kcal/mol.

For AGGGACACGTGCAGTG, the “relative binding free energy” value is 0.05 kcal/mol.

In the case of AGGTGCACGTGTTTAG, the “relative binding free energy” value worked out at 0.01 kcal/mol.

As to CTATACACGTGAGTGG, the “relative binding free energy” value was 0.03 kcal/mol.

As to GAGTGCACGTGGGGAC, the “relative binding free energy” value is -0.06 kcal/mol.

On to TGGGGCACGTGTAAGC, for which the “relative binding free energy” value is -0.01 kcal/mol.

In the case of TGGTGCACGTGAAAGG, the “relative binding free energy” value was 0.21 kcal/mol.

On to AAATTCACGTGGATTG, for which the “relative binding free energy” value was determined as 0.28 kcal/mol.

With AGTTCCACGTGGATGG, the “relative binding free energy” value was found to be 0.04 kcal/mol.

For the sequence TGGGGCACGTGGTCTC, the “relative binding free energy” value was -0.11 kcal/mol.

As to ATGATCACGTGTGTCG, the “relative binding free energy” value amounted to 0.12 kcal/mol.

For TGAGGCACGTGCGGGG, the “relative binding free energy” value was -0.24 kcal/mol.

Consider TTGTACACGTGTTTTA, for which the “relative binding free energy” value is -0.03 kcal/mol.

As for AGAGTCACGTGTAAGG, the “relative binding free energy” value was 0.34 kcal/mol.

In the case of GAGCTCACGTGGTGGG, the “relative binding free energy” value worked out at 0.15 kcal/mol.

On to TTATGCACGTGCGAGG, for which the “relative binding free energy” value is -0.1 kcal/mol.

As to TGAGCCACGTGGTATG, the “relative binding free energy” value is -0.29 kcal/mol.

GTACTCACGTGGGTTG: the “relative binding free energy” value was -0.02 kcal/mol.

For TAGGGCACGTGAACTG, the “relative binding free energy” value is 0.22 kcal/mol.

As for TTCGGCACGTGTATGG, the “relative binding free energy” value was determined as 0.09 kcal/mol.

With GCCGGCACGTGGGGTT, the “relative binding free energy” value was -0.11 kcal/mol.

With TTACTCACGTGGGGTA, the “relative binding free energy” value is 0.05 kcal/mol.

Regarding CGGTGCACGTGGGTGC, the “relative binding free energy” value is -0.12 kcal/mol.

Regarding CTGTTCACGTGGTCGT, the “relative binding free energy” value was 0.01 kcal/mol.

Consider TCGTTCACGTGTTGGG, for which the “relative binding free energy” value came out at 0.36 kcal/mol.

As to TATGCCACGTGTGTGC, the “relative binding free energy” value was -0.1 kcal/mol.

Regarding GCTGGCACGTGCGGTG, the “relative binding free energy” value is -0.08 kcal/mol.

Take GTGCTCACGTGGCTGG: the “relative binding free energy” value worked out at 0.15 kcal/mol.

With TATGGCACGTGGTTTC, the “relative binding free energy” value is -0.16 kcal/mol.

Turning to GACAGCACGTGTTTTG, the “relative binding free energy” value is -0.04 kcal/mol.

For the sequence TGAGCCACGTGATGTG, the “relative binding free energy” value was -0.01 kcal/mol.

As to AGAAGCACGTGTAGTT, the “relative binding free energy” value was -0.04 kcal/mol.

Regarding AATGCCACGTGTAGTT, the “relative binding free energy” value is -0.04 kcal/mol.

As to TAGTACACGTGTGGCT, the “relative binding free energy” value is 0.14 kcal/mol.

For CGTAGCACGTGATGTT, the “relative binding free energy” value was -0.13 kcal/mol.

With TTATCCACGTGGGGAT, the “relative binding free energy” value was -0.2 kcal/mol.

Take GACAGCACGTGGGAGG: the “relative binding free energy” value is -0.14 kcal/mol.

Turning to CCGTACACGTGGGTGT, the “relative binding free energy” value is -0.11 kcal/mol.

For the sequence CTTATCACGTGTCGGG, the “relative binding free energy” value came to 0.34 kcal/mol.

In the case of TTAGGCACGTGTCTAG, the “relative binding free energy” value is -0.14 kcal/mol.

On to TGAGACACGTGCGTTT, for which the “relative binding free energy” value is 0.06 kcal/mol.

TTTTTCACGTGCTAAG: the “relative binding free energy” value was 0.37 kcal/mol.

For the sequence GTACTCACGTGAGAGG, the “relative binding free energy” value is 0.41 kcal/mol.

As for GTAGACACGTGGGCGC, the “relative binding free energy” value is 0.06 kcal/mol.

With ATTAGCACGTGCTTTT, the “relative binding free energy” value is -0.03 kcal/mol.

Take AATACCACGTGGTGGG: the “relative binding free energy” value was -0.22 kcal/mol.

As to CAGGGCACGTGATTGG, the “relative binding free energy” value was -0.05 kcal/mol.

For the sequence TGTATCACGTGATTAA, the “relative binding free energy” value stood at 0.23 kcal/mol.

For the sequence GTATTCACGTGCAGTG, the “relative binding free energy” value was found to be 0.17 kcal/mol.

On to GGTGACACGTGGTAGT, for which the “relative binding free energy” value was -0.01 kcal/mol.

Regarding GTATTCACGTGAGGCA, the “relative binding free energy” value turned out to be 0.39 kcal/mol.

TGTGGCACGTGACAAT: the “relative binding free energy” value is -0.08 kcal/mol.
